Experimental data as given in PubChem BioAssay AID686978 (National Center for Advancing Translational Sciences (NCATS), 2013).
Hit rate of the full screen: of about 420,000 compounds, about 64,000 (15%) were called active. Inconclusive results, whose numbers are uncertain, are shown with a selection of clear calls. Calls come from the whole dose curve; as a rule, active = well fitted inhibition curve with a large enough effect; inconclusive = small, poorly fitted or top-dose-only effect; inactive = flat fitted curve, though single readings scatter. Potencies of inconclusive entries are left out as doubtful fits.

Experiment: qHTS for Inhibitors of human tyrosyl-DNA phosphodiesterase 1 (TDP1): qHTS in cells in absence of CPT; note: nearly all actives have a fitted effect of over 55% in size
Settings: DT40 Tdp1-/- hTDP1 cells, no CPT, ATP luminescence, 48 h; series mostly up to 46.2 µM
How it was run: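 Compound effects on proliferation are scored in DT40 Tdp1-/-;hTDP1 cells in the absence of CPT. ATP levels (CellTiter-Glo luminescence) are recorded after a ≥48 hr, 37 °C incubation.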
Potency is the fitted concentration of half-maximal effect; tags give direction and shape of the fitted curve.

Structure (SMILES) | Potency
O=C(Cc1ccc(F)cc1)Nc1ccc(F)c([N+](=O)[O-])c1 | inconclusive [inhibitor, single point]
COc1ccc([N+](=O)[O-])cc1NC(=O)c1cn(-c2ccc(Cl)cc2)c(=O)c2ccccc12 | inactive
Cc1ccc(NC(=O)c2cc3c(s2)CCCC3)cc1 | inactive
CC(=O)Nc1ccc(OS(=O)(=O)c2c(C)cc(C)cc2C)cc1 | inconclusive [inhibitor, single point]
COc1ccc(S(=O)(=O)Nc2ccccc2C(=O)Nc2nc(-c3ccc(F)cc3)cs2)cc1OC | active: 16.4 µM
O=C(Nc1cc(C(F)(F)F)ccc1Cl)c1cc(-c2cccs2)nc2ccccc12 | inactive
CC(C)CCOc1ccc(C(=O)Nc2cc(S(=O)(=O)N3CCOCC3)ccc2N2CCOCC2)cc1 | active: 5.8 µM
COc1ccccc1C(=O)Nc1nnc(CCc2ccccc2)s1 | inconclusive [inhibitor, single point]
CC1(C(=O)O)CCC(C(=O)Nc2ccc(F)cc2)C1(C)C (centres undefined) | inactive
CN(C)c1ccc(-c2csc(C(O)c3ccc(F)cc3)n2)cc1 (centres undefined) | inconclusive [inhibitor, single point]
CC(=O)Nc1ccc(OCCOc2ccc([N+](=O)[O-])cc2)cc1 | inconclusive [inhibitor, partial curve, poor fit]
COc1ccc(NC(=O)C2CCCN2C(=O)OC(C)(C)C)cc1 (centres undefined) | inactive
CC(=O)N1CCN(c2ccc(NC(=O)c3ccc([N+](=O)[O-])cc3Cl)cc2)CC1 | inconclusive [inhibitor, single point]
Cc1cc(S(=O)(=O)Nc2cc3c(cc2Cl)n(C)c(=O)c(=O)n3C)ccc1F | inconclusive [inhibitor, single point]
COc1ccc(S(=O)(=O)NCC(c2cccnc2)N2CCN(c3ccccc3OC)CC2)cc1C (centres undefined) | inconclusive [inhibitor, partial curve, poor fit]
CC(=O)Oc1ccccc1Cn1c(C)c(C(=O)NCc2ccc(Cl)c(Cl)c2)sc1=O | inconclusive [inhibitor, single point]
O=C1C2C3C=CC(C2C(=O)N1C1CCCCC1)C1C2C(=O)N(C4CCCCC4)C(=O)C2C31 (centres undefined) | inconclusive [inhibitor, full curve]
Cc1ccc(CNC(=O)C2CCC(=O)N(CCc3ccc(Cl)cc3)C2)cc1 (centres undefined) | inconclusive [inhibitor, single point]
O=C(NCc1ccc(F)cc1)C1CCC(CNS(=O)(=O)c2ccccc2)CC1 (centres undefined) | inconclusive [inhibitor, single point]
COc1ccc(NC(=O)CSc2c3c(nc4ccccc24)CCC3)cc1Cl | inactive
CCN[C@H]1CN(CCCOC)S(=O)(=O)c2sc(S(N)(=O)=O)cc21 | inactive
Cc1c(C(=O)Nc2cccc(C(F)(F)F)c2)oc2ccc(S(=O)(=O)N3CCC4(CC3)OCCO4)cc12 | active: 9.2 µM

Structure (SMILES) | Potency
Oc1cccc(NC(=S)Nc2ccc(SC(F)F)cc2)c1 | inconclusive [inhibitor, single point]
N#C/C(=C/c1ccc(-c2ccccc2)o1)c1nc(-c2cccs2)cs1 | inconclusive [inhibitor, single point]
CCc1noc(C)c1C(=O)Nc1nc(-c2ccc(OC)c(OC)c2)cs1 | inconclusive [inhibitor, single point]
C=C1CC(C(=O)N/N=C/c2ccc(O)cc2)C1 | inconclusive [inhibitor, single point]
Cc1nn(S(=O)(=O)c2ccc(F)cc2)c(C)c1S(=O)(=O)N1CCCCC1 | inactive
CCCCn1c(=O)c(CCC(=O)OC(C)C(=O)Nc2cccc(Cl)c2Cl)nc2ccccc21 (centres undefined) | inconclusive [inhibitor, partial curve]
Cc1cccc(N2CC(O)(c3cccs3)[N+]3=C2CCCC3)c1C (centres undefined) | active: 20.6 µM
COc1ccc(NC(=O)/C(=C/c2cccs2)NC(=O)c2ccco2)cc1 | inactive
COc1cccc(CC(=O)Nc2nc3ccccc3[nH]2)c1 | inactive
CCOC(=O)N1CCN(S(=O)(=O)c2ccc(C(=O)NNc3nc4c(C)cccc4s3)cc2)CC1 | active: 16.4 µM
COc1cc(C(=O)c2cocc2C(=O)c2ccc3c(c2)OCO3)cc(OC)c1OC | active: 0.731 µM
CCC(C)NS(=O)(=O)c1ccc(NC(=O)C2CCN(C(=O)c3ccco3)CC2)cc1 (centres undefined) | inconclusive [inhibitor, single point]
CCOc1ccc(NC(=O)c2ccc3c(c2)nnn3C2CCCC2)cc1 | inconclusive [inhibitor, partial curve, poor fit]
CCN(CC)S(=O)(=O)c1ccc(NC(=O)c2ccc3c(=O)n4c(nc3c2)CCCCC4)cc1 | active: 23.1 µM
Cc1ccccc1CNC(=O)CCc1cn(Cc2ccccc2C)c2ccccc12 | inconclusive [inhibitor, single point]
CC(C)(C)c1ccc(C(=O)N2CCC(c3noc(-c4ccc(S(=O)(=O)N5CCCC5)cc4)n3)CC2)cc1 | active: 18.4 µM
CCOc1ccccc1N(C)C(=O)c1cc(S(=O)(=O)NCCc2ccc(Cl)cc2)ccc1F | inconclusive [inhibitor, single point]
CCOc1ccc(NC(=O)COc2ccc(S(=O)(=O)N3CCOCC3)cc2)cc1 | inconclusive [inhibitor, full curve, poor fit]
Nc1nnc(CCOc2ccccc2Cl)s1 | inactive
O=C(/C=C/c1ccco1)OCC(=O)c1ccc(OC(F)F)cc1 | inactive
COc1ccc(C=CC(=O)c2c(OC)cc(OC)c(OC)c2O)cc1 | inconclusive [inhibitor, single point]
Cc1ccc(C)c2[nH]c(=O)c(CN(Cc3ccco3)C(=O)Nc3ccccc3)cc12 | inconclusive [inhibitor, partial curve, poor fit]
